Data as given in PubChem BioAssay AID651820 (National Center for Advancing Translational Sciences (NCATS), 2012).
Screen size: about 340,000 compounds; about 12,000 (3.5%) were called active. The shares of active, inactive and inconclusive entries below differ from those in the screen. The call rests on the fitted dose curve; in most records, active means well fitted inhibition curve with a large enough effect; inconclusive means small, poorly fitted or top-dose-only effect, or another doubt; inactive means no such curve, though single readings can be large or run the other way. No potency is given beside an inconclusive call; the fits are too rough.

Test: qHTS Assay for Inhibitors of Hepatitis C Virus (HCV)
Conditions: Huh7.5.1 HCVcc-Cre (HCVcc is cell-culture hepatitis C virus) infection, luciferase reporter, 44 h; activity change, negative = inhibition: at 41.8 µM (top of the series) unless noted
Method in brief: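 Seed cells (1,000/well) for 4 h; treat with compound and infect with HCVcc-Cre, moi about 0.5. Incubate 44 h, then detect luciferase activity.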
On the % scale 0 is the no-effect control and ±100 the full control effect; potency means the concentration at half of the fitted maximal effect; tags describe the fitted curve by direction and shape.

Row | Structure (SMILES) | Potency | activity change, negative = inhibition
1 | COc1ccc([C@H]2CC(=O)C=C(c3cccc4c3Oc3ccccc3S4)C2)cc1OC | active: 12.6 µM | –
2 | CC(=O)c1cccc(NC(=O)C2CCN(S(=O)(=O)c3ccc(C)cc3)CC2)c1 | inactive | –
3 | O=C(NC1CC1)C1=C[C@H](c2csc3ccccc23)C[C@H](OCc2ccc(CO)cc2)O1 | inconclusive [inhibitor, full curve] | –
4 | O=C(Nc1ccc2nc(-c3ccccc3)[nH]c2c1)c1cccs1 | inconclusive [inhibitor, partial curve] | –
5 | CCOCC(=O)Nc1ccc2c(c1)N(S(=O)(=O)c1cccs1)CCC2 | – | inactive: 2.57%
6 | O=C1NC(=S)NC1=Cc1ccco1 | – | inactive: 11.2%
7 | CCCCNc1c(-c2ccc(-c3ccc(C(C)=O)cc3)c(OC)c2)nc2cc(C)ccn12 | inconclusive [inhibitor, full curve] | –
8 | CCOc1cc(/C=C2\CN(CC)C/C(=C\c3ccc(O)c(OCC)c3)C2=O)ccc1O | active: 4.47 µM | –
9 | O=C(CP(=O)(c1ccccc1)c1ccccc1)Nc1nc2ccc(Cl)cc2s1 | inconclusive [inhibitor, single point] | –
10 | COc1ccc(NC2=C(C(C)=O)C(c3ccc(OC)c(OC)c3)C(C(C)=O)C(C)(O)C2)cc1 (centres undefined) | inconclusive [inhibitor, full curve] | –
11 | CC(=O)N1c2ccc(S(=O)(=O)N3CCC(C(=O)Nc4cccc(C)c4C)CC3)cc2CC1C (centres undefined) | inconclusive [inhibitor, single point] | –
12 | CCCCOc1ccc(S(=O)(=O)NNC(=O)C2Cc3c(ccc4ccccc34)O2)cc1 (centres undefined) | inconclusive [inhibitor, single point] | –
13 | CC(C)(C)OC(=O)CNC(=O)c1[nH]cnc1C(=O)NCCCCCNC(=O)OC(C)(C)C | inconclusive [inhibitor, single point] | –
14 | Cc1cc(C(=O)COC(=O)c2ccc[nH]c2=O)c(C)n1-c1ccccc1 | inconclusive [inhibitor, partial curve, poor fit] | –
15 | O=C(Nc1ccc(Br)cc1)C1C2C=CC3(O2)C1C(=O)N(CCN1CCCCC1)C3C(=O)NC1CCCCC1 (centres undefined) | inconclusive [inhibitor, single point] | –
16 | CC(C)CN(C(=O)COC(=O)c1ccc(Cl)c(N)c1)c1c(N)n(Cc2ccccc2)c(=O)[nH]c1=O | – | inactive: -7.76%
17 | COc1ccc(-c2cc(C(=O)NCC3CCCO3)c3cc(C(C)C)ccc3n2)cc1 (centres undefined) | inconclusive [inhibitor, single point] | –
18 | CCCN(CCC)CCNC(=O)c1cc2c(C)nc3ccccc3c2o1 | inconclusive [inhibitor, full curve] | –
19 | Cc1ccc(OCCCC(=O)Nc2cc(Cl)ccc2-n2cncn2)cc1 | inconclusive [inhibitor, partial curve] | –
20 | Cc1ccc(/C=C2/SC(=O)NC2=S)o1 | – | inactive: -0.0543%
21 | O=c1[nH]c(C(F)(F)C(F)(F)C(F)(F)F)no1 | – | inactive: 29%
22 | CCCCc1ccc(NC(=O)CSC2=C(C#N)C(c3ccco3)C3=C(CCCC3=O)N2)cc1 (centres undefined) | inconclusive [inhibitor, single point] | –
23 | Cc1ccc(C(=O)N2CCSC2=S)cc1 | – | inactive: -1.48%
24 | COc1ccc(-c2nc3cccc(C)n3c2NCc2ccco2)cc1OC | inconclusive [inhibitor, single point] | –
25 | CCOc1ccc(Oc2nc(Nc3ccc(C)cc3)nc(N(C)C)n2)nn1 | active: 11.2 µM | –

Row | Structure (SMILES) | Potency | activity change, negative = inhibition
26 | COCCC(C(=O)Oc1c(C(C)(C)C)cc(C)cc1C(C)(C)C)c1ccccc1 (centres undefined) | – | inactive: 8.01%
27 | Cc1cc(C)n(CC(=O)NC2CCCc3c2cnn3-c2ccc(C)c(C)c2)n1 (centres undefined) | inconclusive [inhibitor, partial curve] | –
28 | CCCCOc1ccc(-c2nnn(CC(=O)Nc3ncc(CC(=O)OCC)s3)n2)cc1 | inactive | –
29 | O=C(COc1ccccc1)Nc1ccccc1Oc1ccccc1 | inconclusive [inhibitor, single point] | –
30 | Cn1c(=O)c2c(nc(CO)n2C)n(C)c1=O | – | inactive: 4.46%
31 | C=C1C(=O)OC2C1CCC(C)=C1C(=O)C3OC3(C)C12 (centres undefined) | active: 10 µM | –
32 | COc1ccc(CN(C)C(=O)C(Cc2ccccc2)NC(=O)c2ccccc2)cc1F (centres undefined) | inconclusive [inhibitor, full curve] | –
33 | CN(C)/N=C/c1c(O)ccc2ccccc12 | active: 10 µM | –
34 | CN(C)c1cccc(/C=C(\C#N)c2ccccc2)c1 | active: 11.2 µM | –
35 | CC12CCC(=O)C=C1CCC1C2C(O)CC2(C)C1CCC21OCC1=O (centres undefined) | – | inactive: 18.5%
36 | COc1ccccc1CN(Cc1cc2cc(C)cc(C)c2[nH]c1=O)Cc1nnnn1CC1CCCO1 (centres undefined) | – | inactive: -20.6%
37 | CCOC(=O)C1CCN(C(=O)CN(c2ccc(OC)cc2)S(=O)(=O)c2c(C)noc2C)CC1 | – | inactive: 3.51%
38 | CCC(C)NS(=O)(=O)c1ccc(NC(=O)Cc2ccc(OC)cc2)cc1 (centres undefined) | inconclusive [inhibitor, single point] | –
39 | CCCC(=O)NC(C)c1nc2ccccc2n1C (centres undefined) | – | inactive: 5.6%
40 | COc1cc(NS(=O)(=O)c2ccc(C)cc2C)cc(OC)c1OC | inconclusive [inhibitor, partial curve] | –
41 | CC/C(=N/Nc1cccc(C)c1)c1cnnc(SC)n1 | active: 10 µM | –
42 | O=C(Nc1ccc(N2CCOCC2)cc1)c1ccc2nc(-c3ccco3)c(-c3ccco3)nc2c1 | – | inactive: 6.22%
43 | Cc1ccc(C(=O)N(Cc2nnc(-c3ccc(Cl)cc3)o2)C2CC2)o1 | inconclusive [inhibitor, single point] | –
44 | Cc1cc(NC(=O)CCN2CCN(C)CC2)ccc1Br | inconclusive [inhibitor, single point] | –
45 | CCn1c2ccccc2c2cc(CN3CCN(S(C)(=O)=O)CC3)ccc21 | inconclusive [inhibitor, single point] | –
46 | CC(OC(=O)C1CC1)C(=O)Nc1cc(C(F)(F)F)ccc1Cl (centres undefined) | – | inactive: -16.4%
47 | CCOc1ccccc1OCCCC(=O)Nc1ccc(Cl)c(S(=O)(=O)N2CCOCC2)c1 | active: 7.94 µM | –
48 | COC(=O)[C@H](NCc1ccc(OC)c(B(O)O)c1)C(C)C | – | inactive: 17.1%
49 | CC(C)C(=O)N1CCc2cc(-c3csc(N)n3)ccc21 | – | inactive: -27.3%
50 | CC(C)c1ccc(C(O)c2nc3ccccc3n2C)cc1 (centres undefined) | – | inactive: -15%

Row | Structure (SMILES) | Potency | activity change, negative = inhibition
51 | COc1ccc2nc(SCC(=O)Nc3ccc4sc(C)nc4c3)c(C#N)cc2c1 | inconclusive [inhibitor, partial curve] | –
52 | COc1ccc(Cl)cc1NC(=O)CN(C)C(=O)c1ccc(-n2nc(C)cc2C)cc1 | inconclusive [inhibitor, partial curve] | –
53 | CCN(CC)C(=O)c1sc(NC(=O)c2cccc([N+](=O)[O-])c2)c(C#N)c1C | inconclusive [inhibitor, partial curve] | –
54 | CCOC(=O)C(=O)/C(C#N)=C/Nc1ccccc1 | – | inactive: -3.8%
55 | Cn1cc(CNC(=O)c2cc(-c3ccccc3)nc3ccc(Br)cc23)cn1 | inconclusive [inhibitor, partial curve] | –
56 | C=CCOc1ccc2c3c(c(=O)oc2c1)CCCC3 | inconclusive [inhibitor, full curve, poor fit] | –
57 | COc1ccccc1CC(=O)Nc1ccc(-c2noc(COc3ccc(Cl)c(C)c3)n2)cc1 | – | inactive: -13.7%
58 | O=c1cc(CSc2ccc(Cl)cc2)[nH]c2[nH]n(-c3ccccc3)c(=O)c12 | – | inactive: -10.3%
59 | CCN(CC)c1ccc(S(=O)(=O)N2CCOCC2)cc1NC(=O)COC(=O)/C=C/c1ccco1 | – | inactive: -21.7%
60 | CCc1ccc2nc(Nc3nc(COC)cc(=O)[nH]3)nc(C)c2c1 | inconclusive [inhibitor, partial curve, poor fit] | –
61 | COc1ccc(NS(=O)(=O)c2ccc(Oc3c(C#N)cccc3C#N)cc2)cc1 | active: 17.8 µM | –
62 | COC(=O)c1c(C)[nH]c(C)c1C(=O)c1ccccc1Cc1ccccc1 | inconclusive [inhibitor, partial curve, poor fit] | –
63 | CC1(C)CC(N2CCCCC2)=CC(=[N+]2CCCCC2)C1 | inconclusive [inhibitor, full curve] | –
64 | COc1ccc(N(CC(=O)NCc2cccs2)S(=O)(=O)c2c(C)nn(C)c2C)cc1 | – | inactive: 11.3%
65 | Cn1c(=O)n(CC(=O)NCC2CCCO2)c(=O)c2c3c(sc21)CCCC3 (centres undefined) | – | inactive: 8.41%
66 | Cc1ccccc1NC(=O)C1CCC(C)(C(=O)O)C1(C)C (centres undefined) | inconclusive [inhibitor, single point] | –
67 | O=C(CNCc1cccs1)Nc1cc(S(=O)(=O)N2CCCC2)ccc1Cl | active: 10 µM | –
68 | Cc1ccccc1NC(=O)c1ccc(Nc2c([N+](=O)[O-])cc([N+](=O)[O-])c3ccccc23)cc1 | active: 14.1 µM | –
69 | CC1(C)Cc2c(sc(NC(=O)c3ccc4ncsc4c3)c2C(N)=O)C(C)(C)N1 | inconclusive [inhibitor, single point] | –
70 | CCOC(=O)CSC1=NC(=O)/C(=C\c2ccc(OC(C)=O)cc2)S1 | inconclusive [inhibitor, single point] | –
71 | O=C1C2CC=CCC2C(=O)N1c1ccc(Cc2ccncc2)cc1 (centres undefined) | inconclusive [inhibitor, single point] | –
72 | Cc1cc(NC(=O)Nc2cc(Cl)sc2Cl)no1 | inconclusive [inhibitor, single point] | –
73 | Cn1c(=O)c2c(nc(N3CCCCC3)n2CCCNC2=NCCCC2)n(C)c1=O | inconclusive [inhibitor, partial curve] | –
74 | CC[C@H](C)[C@H](NC(=O)[C@H](Cc1ccc(O)cc1)NC(=O)[C@@H](N)C(C)C)C(=O)N[C@@H](Cc1cnc[nH]1)C(=O)N1CCC[C@H]1C(=O)N[C@@H](Cc1ccccc1)C(=O)O | inconclusive [inhibitor, partial curve] | –
